Results from publication PMC4336329 (PLoS ONE, 2015).
Among all 310,000 compounds or so, about 14,000 (4.5%) showed an effect of 50% or more. The effect is printed as a negative number. This is one part of the list.

Molecular target: human ether-à-go-go-related gene (hERG) potassium channel (human, UniProt Q12809)
Experiment: primary screen, population patch clamp on CHO cells stably expressing hERG
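Further: peak tail current of the secondary pulse compared with the same well before compound.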

human ether-à-go-go-related gene (hERG) potassium channel, sequence (Q12809 whole entry, looked up): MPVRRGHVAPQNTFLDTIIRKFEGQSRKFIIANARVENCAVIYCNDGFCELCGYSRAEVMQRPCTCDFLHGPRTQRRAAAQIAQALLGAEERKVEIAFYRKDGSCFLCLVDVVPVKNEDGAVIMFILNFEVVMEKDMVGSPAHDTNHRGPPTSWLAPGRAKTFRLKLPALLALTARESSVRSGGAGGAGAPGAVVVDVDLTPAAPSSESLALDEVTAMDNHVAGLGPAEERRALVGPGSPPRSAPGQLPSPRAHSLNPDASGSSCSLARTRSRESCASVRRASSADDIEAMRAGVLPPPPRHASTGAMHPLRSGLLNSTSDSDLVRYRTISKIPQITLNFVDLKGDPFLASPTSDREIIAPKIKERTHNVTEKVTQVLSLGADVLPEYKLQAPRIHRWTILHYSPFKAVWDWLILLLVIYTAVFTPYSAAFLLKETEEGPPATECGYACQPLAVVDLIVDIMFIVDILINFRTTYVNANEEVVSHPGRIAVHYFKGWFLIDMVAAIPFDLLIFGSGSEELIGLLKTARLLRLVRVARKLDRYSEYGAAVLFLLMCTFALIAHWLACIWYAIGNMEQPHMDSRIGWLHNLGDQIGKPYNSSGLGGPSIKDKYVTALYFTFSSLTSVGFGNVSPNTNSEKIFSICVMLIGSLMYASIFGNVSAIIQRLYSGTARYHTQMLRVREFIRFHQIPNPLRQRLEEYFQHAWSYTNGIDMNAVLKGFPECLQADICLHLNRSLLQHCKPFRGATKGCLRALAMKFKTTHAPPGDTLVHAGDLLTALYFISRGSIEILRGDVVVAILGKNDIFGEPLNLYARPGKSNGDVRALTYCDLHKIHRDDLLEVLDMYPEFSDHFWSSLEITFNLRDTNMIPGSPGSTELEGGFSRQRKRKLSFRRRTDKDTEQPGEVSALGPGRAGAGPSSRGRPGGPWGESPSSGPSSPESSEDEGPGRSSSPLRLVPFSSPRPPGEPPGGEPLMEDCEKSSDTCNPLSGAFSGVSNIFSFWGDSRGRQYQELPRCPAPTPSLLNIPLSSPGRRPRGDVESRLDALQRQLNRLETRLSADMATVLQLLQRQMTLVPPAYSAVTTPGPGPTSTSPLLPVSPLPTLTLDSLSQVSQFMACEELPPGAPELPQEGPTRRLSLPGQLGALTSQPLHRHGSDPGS

Structure (SMILES)	hERG current change (%, negative = inhibition) at 10uM [%]
CCOC(=O)c1c(C)oc2ccc(NS(=O)(=O)c3ccc4c5c(cccc35)C(=O)N4)cc12	-10.9
CCCNC(=O)CSC1=N/C(=C/c2ccc(F)cc2)C(=O)N1CC	-9.88
CCN(CC(=O)Nc1c(F)cccc1F)C(=O)c1n[nH]c2ccccc12	10.4
O=C(Oc1ccc2ccc(=O)oc2c1)c1cccs1	13.2
COc1cc2c(cc1O)C(SC)=NC(C)(C)C2	6.7
COc1cc(C(=O)NNC(=O)c2cc(S(=O)(=O)N(C)C)ccc2N2CCCC2)cc(OC)c1OC	15.1
COc1ccc2cc(CCNC(=O)C(C)C)c(=O)[nH]c2c1	13.4
CC1CN(S(=O)(=O)c2cccc(C(=O)OCc3cc(=O)oc4cc(O)ccc34)c2)CC(C)O1 (stereo not drawn)	-26.3
O=C(CN1CCCCC1)N1N=C(c2cccs2)CC1c1cccs1 (stereo not drawn)	-58.7
COc1cc(C(=O)NC2CCN(Cc3ccccc3)CC2)cc(Cl)c1OC(C)C	-61.2
CCOc1ccc(S(=O)(=O)Nc2ccc(C(=O)N3CC(C)OC(C)C3)cc2)cc1 (stereo not drawn)	0.557
CCn1cc(C(=O)NCc2ccccc2)c2ccccc21	20.3
COC(=O)c1c(C)[nH]c(C(=O)C(C)OC(=O)C2CC2)c1C (stereo not drawn)	13.8
COc1ccc(C(=O)Nc2c(N)nc(SCC(=O)c3ccccc3)[nH]c2=O)cc1	12.4
CC1=C(C(=O)OC2CCCCC2)C(c2cccs2)n2c(nc3ccccc32)N1 (stereo not drawn)	-1.21
CC(C)[C@H](NC(=O)N1CC(=O)Nc2ccccc21)C(=O)N1CCC[C@H]1C(=O)O	16.8
CCOc1ccc2oc(C(=O)NNC(=O)c3ccccc3O)c(C)c2c1	9.29
CN=C(SCC(=O)c1cccc(Cl)c1)c1c(O)n(C)c(=O)n(C)c1=O	-1.91
C=CCOC(=O)C1=C(C)N=C2SCCC(=O)N2C1c1cccs1 (stereo not drawn)	2.46

Structure (SMILES)	hERG current change (%, negative = inhibition) at 10uM [%]
COc1ccc(-c2cc3nc4n(c(=O)c3s2)CCC4)cc1	0.892
O=C1N2CCSC2=NC1(Nc1nccs1)C(F)(F)F (stereo not drawn)	5.22
Cn1c(Cc2ccccc2)nnc1SCC(=O)N1CCN(c2ccccc2)CC1	-14.5
CCc1cc(=O)oc2cc(C)c3c(C)coc3c12	16.3
COC(CNC(=O)c1ccc2c(=O)n(Cc3ccc4c(c3)OCO4)c(=S)[nH]c2c1)OC	11.6
Cc1ccc(NC(=O)CN(C)C(=O)CCSc2ccc(F)cc2)cc1	-9.17
O=C(CCN1C(=O)C2CCCCC2C1=O)N1CCN(S(=O)(=O)c2ccccc2)CC1 (stereo not drawn)	-1.24
Clc1ccc2c(N3CCCC3)ccnc2c1	-65.2
COc1ccc(C2CC(Cn3cc(C#N)c(=O)n(C)c3=O)ON2C)cc1 (stereo not drawn)	8.43
CCOc1ccc(NC(=O)CN(c2cc(C)cc(C)c2)S(=O)(=O)c2c(C)noc2C)cc1	0.745
Cc1ccc(C2N3CCCN23)cc1 (stereo not drawn)	11.9
Cc1ccc(CN2CCSCC2)cc1	17.4
NS(=O)(=O)c1ccc(CCn2c(=S)[nH]c3ccc(F)cc3c2=O)cc1	26.3
ONC=Nc1cccc2nonc12	10.8
Cn1c(O)c(N=NC(=O)Cn2ccc(C(F)(F)F)n2)c2ccccc21	14.7
CCc1cccc(NC(=O)COc2ccccc2)c1	-8.01
N#CCCn1cc(C(=O)Nc2ccc([N+](=O)[O-])cc2)c(-c2ccccc2)n1	-80.1
CCOC(=O)N1CCN(C(=O)CCc2ccc(S(=O)(=O)NCC(C)C)cc2)CC1	-19.8
COC(=O)C1=C(C)OC(N)=C(C#N)C1c1ccccc1 (stereo not drawn)	14.9

Structure (SMILES)	hERG current change (%, negative = inhibition) at 10uM [%]
FC(F)(F)c1cc(Oc2ccccc2)ncc1-c1nnc(-c2ccccc2Cl)o1	0.303
Cc1cc(C(F)(F)F)nc(SCCN2CCOCC2)c1C#N	3.64
O=S(=O)(NCC(c1cccnc1)N1CCN(c2ccccc2)CC1)c1cc(F)ccc1F (stereo not drawn)	-62.8
Cn1c(SCC(=O)c2c(N)n(C)c(=O)n(C)c2=O)nnc1-c1ccccc1	-10.1
O=C(Nc1ccccc1)N1CCSCC1	-1.89
O=C(c1ccc2c3n(nc2c1)-c1ccccc1CO3)N1CCOCC1	-8.48
O=C(CSc1nc2ccccc2[nH]1)N/N=C/C=C\c1ccccc1[N+](=O)[O-]	-9.37
Cc1nc(C)c(-c2ccn(C(=O)NC(C)C)n2)s1	10.5
Cc1ccccc1Cc1n[nH]c(=S)n1N	16.6
COc1ccc(OCC(O)CNC(=O)c2ccc(C)cc2)cc1 (stereo not drawn)	3.31
O=C(NNC(=O)C1CC(c2cccs2)=NO1)Nc1ccccc1 (stereo not drawn)	4.22
CCOc1ccccc1N1CCN(C(=O)c2ccc(NS(=O)(=O)c3ccc4[nH]c(=O)[nH]c4c3)cc2)CC1	2.58
O=C(/C=C/c1ccco1)Nc1cccc(C(=O)Nc2ccccc2C(=O)O)c1	3.39
O=C(CSc1cccc[n+]1[O-])NC(=O)c1ccc(OC(F)F)cc1	-2.15
O=C(CN1CCOc2ccccc21)NC1CC1	-4.43
CC(CCc1ccccc1)NC(=O)/C=C/c1ccccc1 (stereo not drawn)	-31.2
CSc1nc(N)c(C(=O)Nc2ccc([N+](=O)[O-])cc2)s1	-12.3
O=C(O)C1CCCCC1C(=O)NCCc1ccc(F)cc1 (stereo not drawn)	13.8
C/C=C/C=C/C(=O)[C@@H]1[C@@H]([C@]2(C)OC(=O)C(C)=C2O)[C@H]2/C(=C(O)/C=C/C=C/C)C(=O)[C@]1(C)C(=O)C2(C)O (stereo partly drawn)	1.28
